# Measured values taken from ChEMBL document CHEMBL4888484, “Replenishing the malaria drug discovery pipeline: Screening and hit evaluation of the MMV Hit Generation Library 1 (HGL1) against asexual blood stage Plasmodium falciparum ,using a nano luciferase reporter read-out” (2022).
# In all, about 150,000 compounds went through this assay and about 540 (0.36%) showed an effect of 50% or more. The list shows a part of the results.
# Test system: Plasmodium falciparum
# Assay: Primary screen in NF54 nanoGlo assay, in single point, at 2uM, 72h; a lower Z score goes with more inhibition
# Assay type: functional, Erythrocyte
# Conditions: timepoint 72 hour
Structure (SMILES),% Inhibition [%],Z score
COCc1nc(CCNC(=O)C2CCC2)no1,-4,0.45
Cc1cc(S(=O)(=O)N2CCC3(CC2)CNC(=O)O3)c(Cl)cc1F,-4,0.85
O=C(NCCc1ccncc1)c1c[nH]c2ccc(Cl)cc2c1=O,8,-1.03
CC1=C[C@@H](CN2CCN(C)CC2)[C@H](C(C)C)C[C@H]1Cc1nnc(COc2ccc(F)cc2)o1,-5,0.7
CC(C)[C@H]1CN(c2ccncc2)C[C@@H]1C(=O)O,0,0.01
O[C@@]1(CN2CCCCC2)CCN(Cc2ccc(F)c(Cl)c2)C1,-9,1.8
COc1ncccc1-c1ccc(-c2nnc(N)s2)cc1,-8,0.75
O=C(Nc1ccc2oc(-c3ccccc3F)nc2c1)c1sc2ccccc2c1Cl,-19,2.62
C=CCNC(=O)c1csc(COc2ccc3c(c2)[C@H](c2cccc(F)c2)N(C(=O)C(C)(C)C)CC3)n1,3,-0.36
N#Cc1cn[nH]c1NC(=O)C(=O)NCc1ccco1,-3,0.35
CCN(C(=O)c1ccc(Br)cc1Cl)c1ncc[nH]1,-16,2.46
FC(F)(F)Cn1ccnc1COc1c(Br)cccc1Br,-12,2.05
COc1cc(OC)c(NC(=O)COc2ccccc2-c2nc3ccccc3s2)cc1Cl,35,-4.45
O=C(c1ccoc1)N1CC(C(F)(F)F)C1,-11,1.58
COc1ccc(Cc2nc3ccccc3n2CC(=O)N2CCCCCC2)cc1,-9,1.23
CCN(CC)c1cc2c(cc1F)c(=O)c(S(=O)(=O)c1cccc(Cl)c1)cn2Cc1ccc(F)cc1,-12,1.45
CCCN(Cc1c(C(C)C)nn(-c2ccccc2)c1N(C)C)C(=O)NCC,-1,0.1
c1coc(-c2noc(CN3CCN(c4nccs4)CC3)n2)c1,-10,2.06
COCCn1c(N)c(C(=O)CN2CC(C)CC(C)C2)c(=O)[nH]c1=O (stereo unspecified),11,-1.42
CC(C)(C)c1ccc(S(=O)(=O)Nc2ccc(C(=O)N3CCN(c4ncccn4)CC3)cc2)cc1,0,0.04
CC1CCC(NS(=O)(=O)c2ccc3c(c2)CCCN3C(=O)C2CCC2)CC1 (stereo unspecified),-9,1.22

Structure (SMILES),% Inhibition [%],Z score
CC(C)(C)c1nc(CN2CCn3cncc3C2)n[nH]1,-15,2.42
O=C([C@@H]1CC=CCC1)N1CCN(c2ccc(-n3cncn3)nn2)CC1,13,-1.63
Cc1cccc(NC(=O)N[C@H](CO)C(C)C)c1Br,-1,0.14
CN(Cc1ccco1)C(=O)c1ccc2c(c1)N(C)C(=O)[C@@H]1CCCCN21,-1,0.11
CC1CC(C(=O)O)CC(C)N1Cc1cccc2nsnc12 (stereo unspecified),-5,1
Cc1noc(C)c1S(=O)(=O)Nc1ccc(Oc2ccccc2)cn1,7,-1.16
CNC(=O)c1ccc(CNC(c2ccc(Cl)cc2)C2CN(C)CCO2)cc1 (stereo unspecified),-11,1.29
C[C@H](NCc1nc(C2OCCO2)cs1)C1CC1,-19,2.32
O=C(CNC(=O)c1ncccc1Oc1ccccc1)Nc1cccnc1,-17,1.49
CCN(C(=O)c1cccc(-c2ccoc2)c1)c1ccncc1,-3,0.24
COc1ccc(-c2nc3ccc(C(=O)NC4CCCC(C)C4C)cc3nc2-c2ccc(OC)c(OC)c2)cc1OC (stereo unspecified),24,-2.87
COCCCCC(=O)NCC1(O)CCCCC1,12,-2.16
CC1CC1C(=O)Nc1ccc2c(c1)OC1(CCCCC1)O2 (stereo unspecified),3,-0.48
Cc1cccc(N2CCN(C(=O)c3cccc(N4C(=O)C5CC=CC(C)C5C4=O)c3)CC2)c1C (stereo unspecified),-5,0.62
Cn1cnc2c1CCN(CCCOc1ccc3c(c1)OCO3)C2,-1,0.11
CCCOc1ccccc1CCNC(=O)[C@@H]1C=CCN1,-22,2.04
O=C(N[C@H]1COC[C@H]1NC(=O)c1cccnc1)c1cccnc1,0,0.03
CN(C)CCN(Cc1ccsc1)C(=O)c1cc2cc(F)ccc2[nH]1,-5,0.68
CC(Oc1ccc(C(F)(F)F)cc1)C(=O)NC(C)c1ncon1 (stereo unspecified),-2,0.18
Cc1cccc(Cn2cnc3ccncc3c2=O)n1,1,-0.22
COCc1nc(C2CC2)nc(N2CCN(C(=O)c3ccccc3Cl)CC2)c1Cc1cccc(C)c1,-3,0.31

Structure (SMILES),% Inhibition [%],Z score
COc1ccnc(C(=O)N2CCCN(S(=O)(=O)N3CCCC3)CC2)c1,-9,1.86
Cc1ccc(-n2cnnc2)c(C(=O)N2CC(C)S(=O)(=O)C(C)C2)c1 (stereo unspecified),-1,0.27
O=C1NC[C@H]2O[C@H](CCOc3cc(-c4ccccc4)ccc3C(=O)N3CCN(Cc4ccc(C(F)(F)F)cc4)C[C@@H]13)CC[C@@H]2O,17,-1.96
O[C@H]1CCCC[C@@H]1N1CCN(CCCc2ccco2)CC1,-10,1.96
C=C[C@H]1OCC[C@@H]1C(=O)NC(C)(C)C(O)C(F)(F)F (stereo partly specified),-13,1.53
CC(C)NC(=NC1CC1)NCc1cc2ccccc2o1,3,-0.37
CC(C)C1CN(C(=O)c2cnc(C3OCCO3)s2)C1C(C)C (stereo unspecified),5,-0.88
CCn1cc(Br)c(=O)c(NC(=O)[C@@H](C)C(C)(C)C)c1,3,-0.43
CCc1nocc1CN(C)C(=O)[C@@H]1CCCN1CC(F)(F)F,0,0.05
COc1ccc(NC(=O)[C@H]2CC(=O)N(c3n[nH]c4cccc(F)c34)C2)c(OC)c1,-2,0.24
Cc1nc(CNc2ccccc2NC(=O)Cc2cccs2)cs1,-17,1.71
Cc1ccc(C(=O)NC[C@H]2CCN(Cc3cccnc3)C2)cc1Cl,7,-0.93
CC(=O)c1ccc(N2CCN(C(=O)NC3CCC(O)CC3)CC2)cc1 (stereo unspecified),-9,1.45
COc1cccc(-c2n[nH]c3c2CN(C(=O)Cc2cnc4ccccn24)CC3)c1,-15,2.14
CC1=CC(C)[C@@H]2COC(c3ccc(N(C)C)cc3)[C@H]1C2C (stereo partly specified),2,-0.32
Cc1nnc(-c2ccccc2NC(=O)CCC2CCC(C)O2)o1 (stereo unspecified),37,-5.32
Cc1ccc(CC(=O)N2CCC(N(C)c3ccc(C)nn3)CC2)cn1,-1,0.13
C=CCCC(=O)N[C@@H](C)c1nc(C)c(C(=O)O)s1,1,-0.17
COC[C@@H]1CN(c2ccncn2)C[C@H]1C(=O)N(C)Cc1ccco1,-11,1.69
Cn1ccc(C=C(CC(=O)O)c2nc3cc(Cl)ccc3s2)n1,-14,2.75
O=C(C[C@H]1CCOc2ccccc21)NCCC(=O)N1CCCCCC1,0,0.07

Structure (SMILES),% Inhibition [%],Z score
Cc1ccc(C(=O)Nc2ccsc2-c2nnc(C3CC3)o2)cc1F,-9,1.44
Cc1cc(C(=O)Nc2ccnn2[C@H]2CCCc3ccccc32)c(C)o1,-8,0.82
Cc1ccc(-c2cc([C@H]3CCN(Cc4ccoc4)C3)ccn2)c2cccnc12,-5,1
CC(C)(C)c1ccc([C@@]2(C)NC(=O)N(Cc3nncs3)C2=O)cc1,2,-0.34
C[C@@H](c1cncc(F)c1)N1C(=O)NC(CC(F)(F)F)C1=O (stereo partly specified),-4,0.76
Cc1ccc(S(=O)(=O)C2CCCCC2N[C@@H]2C=C[C@H](CO)C2)cc1 (stereo partly specified),-8,0.98
O=C1N(Cc2cc3ccccc3[nH]2)c2ccccc2C12OCCO2,1,-0.09
COC(=O)N(C)CCCC(=O)Nc1nn(C)c2cc(C)n(C)c(=O)c12,-14,1.85
NC(=NCc1ccco1)Nc1ccc(OC(F)(F)F)cc1,-10,1.55
CC(=O)c1sc(Nc2ccc3c(c2)OCO3)nc1C,-5,0.71
CC(C)NC(=O)N[C@@H]1CC[C@H]2CCOc3ccccc3C(=O)N3CCN(Cc4ccc5c(c4)OCO5)C[C@H]3C(=O)NC[C@H]1O2,-6,0.75
O=C(c1n[nH]c2ccccc12)N1CCC[C@H](c2nccn2CC2CCC2)C1,-15,2.08
Cn1ccn2ncc(C(=O)N3CCn4nc(-c5nc6ccccc6[nH]5)cc4C3)c12,-23,2.22
CC(C)(O)CN1CCN(C(=O)C[C@@H]2OCCc3sccc32)CC1,5,-0.85
COc1cccc(CN2CCCCC23CC3)c1O[C@@H](C)C(=O)O,-11,1.41
Cc1cnc(CN2CCC([C@@H](O)CCc3ccccc3)CC2)c(C)c1O,-3,0.5
CC(C)c1nc(CN2C(=O)CNC2=O)n(Cc2c(F)cccc2Cl)n1,17,-2.17
CC(C)n1ccc(CN2CCN(C[C@H](O)COc3ccccc3)CC2)n1,8,-0.91
O=C(c1n[nH]c2c1CCCC2)N1CCc2nc[nH]c2C1,-10,1.2
COc1nc2c(cc1CNC(=O)CCC1CC1)C(=O)N(C1CCCC1)C2,5,-0.72
